Molecules are shown by their SMILES. Values joined by “and” are separate entries in the source; they are usually repeats but may differ in a detail not shown here. Equal values may be shown once. Hit rate of the full screen: of about 16,000 compounds, about 40 (0.2%) were called active. Another 1% or so got no clear call; they are omitted. The call rests on the fitted dose curve; in most records, active means well fitted activation curve with a large enough effect; inconclusive means small, poorly fitted or top-dose-only effect, or another doubt; inactive means no such curve, though single readings can be large or run the other way. The list shows a part of the results.
On the % scale 0 is the no-effect control and ±100 the full control effect.

UniProt Q8WZA2, sequence (Q8WZA2 whole entry, looked up): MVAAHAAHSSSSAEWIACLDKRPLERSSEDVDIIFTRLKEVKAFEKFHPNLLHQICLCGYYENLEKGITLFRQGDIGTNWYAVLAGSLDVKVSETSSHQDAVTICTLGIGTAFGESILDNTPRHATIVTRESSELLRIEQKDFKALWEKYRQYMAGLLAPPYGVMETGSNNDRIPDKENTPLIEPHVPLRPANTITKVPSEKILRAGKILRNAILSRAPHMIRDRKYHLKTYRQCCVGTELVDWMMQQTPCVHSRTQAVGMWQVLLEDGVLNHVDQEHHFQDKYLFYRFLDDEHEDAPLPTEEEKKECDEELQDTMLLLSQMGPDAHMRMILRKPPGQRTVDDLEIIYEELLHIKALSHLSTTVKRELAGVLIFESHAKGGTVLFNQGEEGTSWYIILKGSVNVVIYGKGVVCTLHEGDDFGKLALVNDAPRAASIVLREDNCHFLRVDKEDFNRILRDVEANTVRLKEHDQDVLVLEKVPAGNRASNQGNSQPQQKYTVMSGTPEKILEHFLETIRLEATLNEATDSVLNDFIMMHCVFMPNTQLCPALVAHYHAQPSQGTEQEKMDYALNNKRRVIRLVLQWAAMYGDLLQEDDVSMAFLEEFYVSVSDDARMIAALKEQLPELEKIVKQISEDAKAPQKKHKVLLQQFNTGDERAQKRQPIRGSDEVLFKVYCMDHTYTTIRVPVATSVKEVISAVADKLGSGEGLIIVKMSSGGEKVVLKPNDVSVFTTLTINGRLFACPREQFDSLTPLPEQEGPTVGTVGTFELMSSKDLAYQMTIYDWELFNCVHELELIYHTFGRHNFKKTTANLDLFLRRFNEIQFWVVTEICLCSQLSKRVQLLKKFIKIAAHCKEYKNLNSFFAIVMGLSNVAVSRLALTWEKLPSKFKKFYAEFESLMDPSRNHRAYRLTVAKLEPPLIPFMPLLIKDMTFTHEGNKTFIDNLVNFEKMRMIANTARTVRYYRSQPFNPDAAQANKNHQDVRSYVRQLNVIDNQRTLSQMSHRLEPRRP

The target in the assay is Rap guanine nucleotide exchange factor 4 (Homo sapiens) (UniProt Q8WZA2). In words: Validation qHTS for agonist of cAMP-regulated guanine nucleotide exchange factor 4 (EPAC2).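 Further: exchange makes BODIPY-GDP fluorescence drop when released from Rap1B; series mostly up to about 150 µM.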 The conditions noted are these: EPAC2 Rap1B BODIPY-GDP exchange, fluorescence; activation: active compounds read high. In a few lines:
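Signal normalized against 6.5 mM cAMP as agonist control. Mix of EPAC2 (100 nM), RAP1B-BODIPY-GDP (250 nM) and GDP (50 uM) was read kinetically at 480/540 nm, every 5 min over 30 min, after 5 min room-temperature incubation with compound.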
For orientation: In qHTS, concentration-response curves come from the screen itself.
`c1csc(CNc2ccnc(-c3ccoc3)n2)c1`: the activation is inactive: -9.92%.

In the case of `CCCCCCCCCCCCN1[C@@H](CC(=O)OC)c2cc(F)ccc2S1(=O)=O`, the activation was inactive: -5.82%.

For `C[C@]12CCC(=O)C=C1CC[C@H]1[C@@H]3CC[C@](O)(C(=O)CO)[C@@]3(C)C[C@H](O)[C@@]12F`, the activation was inactive: -0.956% and inactive: -3.33%.

As for `CSc1nc(N)c2ncn([C@H]3O[C@H](COP(=O)(O)OP(=O)(O)O)[C@@H](O)[C@@H]3O)c2n1`, the activation was inactive: -0.485%. As for `COc1cc(=O)n2c(c1C(=O)NC(C)c1ccco1)CCN(C(=O)c1cn3ccc(C)cc3n1)CC2` (stereo unspecified), the activation is inactive: -14.8%. The figure for `COc1cccc(-c2ccc3ncnc(N4CCN(C)CC4)c3c2)c1` is inactive: -0.97%; for `CCNc1ncc2nc(-c3ccc(OC)cc3)c(=O)n(C)c2n1` it is inactive: -0.156%; for `O=c1c(CCc2ccccc2)nc2cnc(N3CCOCC3)nc2n1C1CC1` it is inactive: -1.97%. Then `CC(C)NC(=O)N1CCCC2(CCN(C(=O)c3ccco3)CC2)C1`, with inactive: -15.8%; and `CC(=O)NNC(=O)N1Cc2ccccc2Oc2ccc(Cl)cc21`, with inactive: -16.1% and inactive: -56.7%; and `COc1ccc(C(=O)N(O)c2ccccc2)cc1`, with inactive: -12%. Then `COc1cccc(Cn2c(=O)c(-c3cc(F)cc(F)c3)nc3cnc(N4CCOCC4)nc32)c1`, with inactive: -2.68%; and `COc1cccc(-c2nc(NCc3ccccc3OC)c3ccccc3n2)c1`, with inactive: 20.1%. In the case of `O=C(O)C1CCC[C@@H]2[C@@H]3CC(CN12)[C@@H]1CCCCN1C3` (stereo partly specified), the activation was inactive: -12.9%. For `O=C([C@@H]1C[C@@H](Sc2nc3ccccc3[nH]2)CN1CC1CCCCC1)N1CCOCC1`, the activation is inactive: -18.2%. The figure for `COc1ccc(NC(=O)N2CC[C@@]3(CCCN(S(C)(=O)=O)C3)C2)cc1` is inactive: -25.7%; for `CCCCC[C@H](O)/C=C/[C@H]1C=CC(=O)[C@@H]1C/C=C\CCCC(=O)O` it is inactive: 5.31%; for `CC(C)(CO)[C@@H](O)C(=O)NCCCO` it is inactive: 9.04% and inactive: 8.2%. The figure for `COc1ccc(NC(=O)N2CC[C@@]3(CCCN(C(C)=O)C3)C2)cc1` is inactive: -4.5%. Then `O=C(c1cc(C(F)(F)F)cc(C(F)(F)F)c1)N1CCC[C@@]2(CCN(c3ccccc3)C2)C1`, with inactive: -29.1%; and `C=C(C)C1CC[C@]2(CO)CC[C@@]3(C)[C@H](CCC4[C@@]5(C)CCC(O)C(C)(C)C5CC[C@@]43C)C12` (stereo partly specified), with inactive: -3.24%. As for `CCOC(=O)[C@H](CCc1ccccc1)N[C@@H](C)C(=O)N1[C@H](C(=O)O)C[C@H]2CCCC[C@@H]21`, the activation was inactive: 2.41% and inactive: -5.79% and inactive: -10.4%. The figure for `CCNc1ncc2nc(-c3cccs3)c(=O)n(C[C@H]3CCCO3)c2n1` is inactive: -6.53%. In the case of `CC[C@H]1CN2CCc3cc(OC)c(OC)cc3[C@@H]2C[C@@H]1C[C@H]1NCCc2cc(OC)c(OC)cc21`, the activation is inactive: -29.3%. Then `COc1cccc(-c2nc3cc(SC)ccc3cc2CN(C(=O)c2sccc2C)C2CC2)c1`, with inactive: -13.1%; and `FC(F)(F)c1cc(CN2CCCC3(CCNCC3)C2)cc(C(F)(F)F)c1`, with inactive: -39.3%. For the molecule `COc1cccc(-c2nc(NCc3cccnc3)c3ccccc3n2)c1`, the activation was inactive: 9.12%. With `Cc1ccc(-c2ccnc(-n3ncc(C(=O)NC[C@@H]4CCCN5CCCC[C@H]45)c3C3CC3)n2)o1`, the activation is inactive: 2.11%. Then `CCc1cc(C(=O)NCCN2Cc3ccccc3OC(c3ccsc3)C2)n(C)n1` (stereo unspecified), with inactive: -3.25%; and `C[N+](C)(CCCCCC[N+](C)(C)CCCN1C(=O)c2ccccc2C1=O)CCCN1C(=O)c2ccccc2C1=O`, with inactive: -22% and inactive: 3.46%; and `CN(C)C(=O)c1ccc(-c2nc(Nc3ccc(F)cc3)c3ccccc3n2)cc1`, with inactive: -16.6%.

`COCCNc1nc(-c2c(C)noc2C)nc2ccccc12`: the activation is inactive: -8.96%.

In the case of `COc1cccc(-c2cc3c(c(OC)c2)OCCN(Cc2ccccc2O)C3)n1`, the activation is inactive: -25%. Then `NNc1nnc(Cc2ccncc2)c2ccccc12`, with inactive: -16.2%; and `CC/C(=C(/CC)c1ccc(OP(=O)(O)O)cc1)c1ccc(OP(=O)(O)O)cc1`, with inactive: -1.97%. Then `COc1ncc2nc(-c3ccc(F)cc3)c(=O)n(CCC#N)c2n1`, with inactive: -8.21%; and `C[C@H]1[C@@H](OC(=O)CCC(=O)O)O[C@@H]2OC3(C)CC[C@H]4[C@H](C)CC[C@@H]1[C@@]24OO3`, with inactive: -24.4%. Then `CCCCCc1ccc(-c2cn(CCCOCc3ccccc3)nn2)cc1`, with inactive: -35%. On to `CC(C)(O/N=C(\C(=O)N[C@@H]1C(=O)N2C(C(=O)[O-])=C(C[n+]3ccccc3)CS[C@H]12)c1csc(N)n1)C(=O)O`, for which the activation is inactive: -0.564%. With `C[C@@H](O)[C@H](N)C(=O)O`, the activation is inactive: -27.3%. The figure for `O=C1[O][Bi][O]c2ccccc21` is inactive: -12.6%; for `Cc1c(C(=O)N(C)C(C)C)sc2ncnc(NCCCN3CCOCC3)c12` it is inactive: -4.06%.

As to `Cc1ccc(/C(=C\CN2CCCC2)c2ccccn2)cc1`, the activation was inactive: 8.17% and inactive: 0.149% and inactive: -21.8%. Then `COC(=O)c1cc(Br)ccc1N(Cc1cc(OC)cc(OC)c1)S(C)(=O)=O`, with inactive: -46.1%; and `CN1CCCC2(CCN(C(=O)c3cnccn3)CC2)C1`, with inactive: 5.61%; and `CN(Cc1cccc2ncccc12)C(=O)c1cnn(-c2ncc3c(n2)-c2ccccc2CC3)c1C1CC1`, with inactive: 1.68%. With `COc1ccc(-n2c(=O)c(-c3cccc(Cl)c3)nc3cncnc32)cc1`, the activation was inactive: 2.94%. Then `CN(C)c1ncc2nc(-c3ccccc3)c(=O)n(-c3ccccc3)c2n1`, with inactive: -5.96%. Take `Cc1ncc2c(c1CNC(=O)c1ccc3c(c1)OCO3)CCN(C(=O)c1cn3ccccc3n1)C2`: the activation is inactive: -2.93%. The figure for `O=c1onc2n1-c1cc(Br)ccc1OC2` is inactive: -19.5%; for `O=c1cnc2cnc(Nc3ccccc3)nc2n1CCc1ccccc1` it is inactive: -6.28%.

These data come from PubChem BioAssay AID1645887 (National Center for Advancing Translational Sciences (NCATS), 2021).
